# Data from PubChem BioAssay AID485294 (National Center for Advancing Translational Sciences (NCATS), 2010).
# Among all 370,000 compounds or so, about 150 (0.041%) were called active. This list was built around the results that the source calls inconclusive (neither active nor inactive); the mix of calls is not that of the screen. Calls follow the shape of the dose curve; as a rule, active = well fitted inhibition curve with a large enough effect; inconclusive = small, poorly fitted or top-dose-only effect; inactive = flat fitted curve, though single readings scatter. No potency is given beside an inconclusive call; the fits are too rough.
# Molecular target: Beta-lactamase (Escherichia coli (strain K12)) (UniProt P00811)
# Assay: qHTS Inhibitors of AmpC Beta-Lactamase (assay with detergent); also: nearly all actives have a fitted effect of over 25% in size;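 as to activity change, negative = inhibition: 0% = no-compound wells and -100% = no-enzyme wells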
# Conditions: AmpC hydrolysis of nitrocefin, absorbance 480 nm, 0.01% Triton; activity change, negative = inhibition: at 114 µM (top of the series)
# Summary of the method: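 20 mM phosphate pH 7.0 + 0.01% (detergent screen) or 0.0001% Triton X-100; 5.3 nM AmpC reagent; cpd preinc 15 min RT; nitrocefin (800 uM stock) to start; A480 q20 s × 4 min; Activity was normalised to no-enzyme and no-compound control wells.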
# Potency is read from the fitted curve at half-maximal effect; tags tell the direction and shape of the fitted curve.
# Chain of UniProt P00811 (P00811 whole entry, looked up): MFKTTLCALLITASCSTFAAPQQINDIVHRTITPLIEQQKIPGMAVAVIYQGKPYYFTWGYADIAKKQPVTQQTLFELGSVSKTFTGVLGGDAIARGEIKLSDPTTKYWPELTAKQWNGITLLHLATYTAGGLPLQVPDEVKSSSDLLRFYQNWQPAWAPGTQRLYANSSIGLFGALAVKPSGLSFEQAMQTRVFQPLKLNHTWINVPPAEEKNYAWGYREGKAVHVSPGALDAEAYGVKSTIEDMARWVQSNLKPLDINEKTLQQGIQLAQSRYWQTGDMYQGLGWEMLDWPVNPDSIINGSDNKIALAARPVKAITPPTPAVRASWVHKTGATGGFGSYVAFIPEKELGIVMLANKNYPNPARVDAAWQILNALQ
Compound,Potency,"activity change, negative = inhibition"
COc1cccc2c(=O)n(CC(=O)Nc3ccccc3F)ccc12,"inconclusive [inhibitor, full curve, poor fit]",
O=C(NCC1CCCO1)c1c(O)c2cccc3c2n(c1=O)CC3 (configuration not stated),"inconclusive [inhibitor, full curve, poor fit]",
C/C(CC(=O)Nc1ccccc1C)=N\NC(=O)Cc1csc(N)n1,,inactive: 1.79%
COc1ccc(-c2csc(NC(=O)CSCc3c(C)noc3C)n2)cc1OC,,inactive: 1.99%
COCCCNC(=O)c1ccc(CS(=O)(=O)c2ccccc2OC)o1,,inactive: 2.89%
O=C(NCc1cccs1)c1ccc(S(=O)(=O)N2CCOCC2)cc1,"inconclusive [inhibitor, full curve, poor fit]",
CC1CN(c2ncnc3c2oc2ccccc23)CC(C)O1 (configuration not stated),"inconclusive [inhibitor, partial curve, poor fit]",
CC(=O)c1ccc(OCC(O)CN2C(C)CCCC2C)cc1 (configuration not stated),"inconclusive [inhibitor, full curve, poor fit]",
O=C(CCC(=O)Nc1ccccc1Cl)NNC(=O)COc1ccc([N+](=O)[O-])cc1,,inactive: -0.826%
COCCNC(=O)CCc1c(C)n(C)c2cc(-c3cc(OC)c(OC)c(OC)c3)nn2c1=O,,inactive: -0.531%
O=C(CSc1nnc(-c2cccs2)o1)N1CCOCC1,,inactive: 10.8%
O=C1c2ccccc2C(=O)N1CCc1nc2ccccc2c(=O)n1CCCn1ccnc1,"inconclusive [inhibitor, full curve]",
Cc1cccc(CCN(Cc2cc3cccc(C)c3[nH]c2=O)C(=O)N2CCOCC2)c1,"inconclusive [inhibitor, full curve, poor fit]",
O=c1c2ccccc2ncn1CCOc1ccccc1[N+](=O)[O-],,inactive: 0.406%
COc1cccc(OCC(=O)Nc2c3c(nn2-c2ccccc2)CS(=O)(=O)C3)c1,"inconclusive [inhibitor, full curve]",
Cn1cc(C(=O)N2CCN(c3ccccn3)CC2)c(=O)c2cc(S(=O)(=O)N3CCOCC3)ccc21,"inconclusive [inhibitor, full curve, poor fit]",
O=C(CC1C(=O)NCCN1C(=O)Nc1ccccc1)Nc1cc(Cl)cc(Cl)c1 (configuration not stated),"inconclusive [inhibitor, full curve]",
Cc1nc(-c2ccc(C(=O)N3CCCC3)cc2)cs1,,inactive: 4.81%
CC1(C)NC(=O)N(CC(O)CN2C(=O)CCC2=O)C1=O (configuration not stated),"inconclusive [inhibitor, full curve]",
c1ccc(CSc2nncn2-c2ccccn2)cc1,"inconclusive [inhibitor, full curve, poor fit]",
COc1c(Cl)cc(Cl)cc1/C=C/C(=O)c1ccc(NC(=O)c2cccs2)cc1,"inconclusive [inhibitor, partial curve]",
COc1ccccc1-c1nnc(SCC(=O)N2CCOCC2)o1,,inactive: -5.74%
Cc1sc2ncn(CC(=O)N3CCN(c4ccccn4)CC3)c(=O)c2c1S(=O)(=O)N1CCCCC1,"inconclusive [inhibitor, full curve, poor fit]",

Compound,Potency,"activity change, negative = inhibition"
CC1(c2ccc3noc(-c4ccccc4)c3c2)OCCO1,"inconclusive [inhibitor, full curve]",
COc1ccc(OC)c(NC(=O)c2nnn(CCc3ccccc3)c2N)c1,"inconclusive [inhibitor, full curve, poor fit]",
COc1ccc(-c2cnc(OC(C)(C)C)nc2OC(C)(C)C)cc1OC,,inactive: 1.22%
Cc1ccoc1C(=O)NCCNC(=O)c1occc1C,"inconclusive [inhibitor, full curve, poor fit]",
O=C1CC2(CCN(C(=O)COc3ccccc3F)CC2)Oc2ccccc21,"inconclusive [inhibitor, full curve]",
Cc1ccc(C)c(S(=O)(=O)NCC(c2ccco2)N2CCc3ccccc3C2)c1 (configuration not stated),"inconclusive [inhibitor, full curve]",
CCOC(=O)N1CCC(NC(=O)C(CC(C)C)NC(=O)C2CCCCC2)CC1 (configuration not stated),"inconclusive [inhibitor, single point]",
CCOC(=O)C1CCN(C(=O)COc2ccc(Cl)cc2Cl)CC1,"inconclusive [inhibitor, full curve, poor fit]",
O=C1C=C(c2ccc(F)cc2OCc2ccccc2)C[C@@H](c2ccc(Cl)cc2)C1,,inactive: 9.56%
Cc1nn(-c2ccccc2)c2c1C(c1ccccc1)C(C#N)=C(N)O2 (configuration not stated),,inactive: -0.0152%
O=[N+]([O-])c1cc(S(=O)(=O)N2CCOCC2)ccc1N1CCNCC1,"inconclusive [inhibitor, partial curve]",
CN(C)S(=O)(=O)c1cc(NC(=O)C2=COCCO2)ccc1Cl,"inconclusive [inhibitor, full curve, poor fit]",
Cc1cccc(N2CCN(C(c3ccncc3)c3nnnn3C(C)(C)C)CC2)c1C (configuration not stated),"inconclusive [inhibitor, single point]",
Cc1cccc(-c2n[nH]c(=S)n2Cc2ccccc2)c1,,inactive: -1.35%
Cc1c(NC(=O)c2ncn[nH]2)cccc1-c1nc2ccccc2s1,"inconclusive [inhibitor, full curve]",
COc1cccc(CN(C)C(=O)c2ccc(C)c(S(=O)(=O)N3CCCCC3)c2)c1,"inconclusive [inhibitor, full curve, poor fit]",
Cc1[nH]nc(-c2ccc(O)cc2O)c1-c1nc2ccccc2s1,"inconclusive [inhibitor, single point]",
COCCn1nnnc1C(c1cccs1)N1CCN(c2cccc(C(F)(F)F)c2)CC1 (configuration not stated),"inconclusive [inhibitor, full curve, poor fit]",
O=C(Nc1ncccc1Cl)C(Sc1ccccc1)c1ccccc1 (configuration not stated),"inconclusive [inhibitor, single point]",
CC(C)CCn1c(Oc2ccccc2F)nc2c1c(=O)n(C)c(=O)n2C,,inactive: 1.65%
CCCCN1C(=O)C(O)(CC(=O)c2ccco2)c2cc(Br)ccc21 (configuration not stated),"inconclusive [inhibitor, full curve, poor fit]",
O=C(CCC1CCCCC1)NC1=NCCS1,,inactive: -1.51%
Cc1ccnc(NC(=O)c2ccc3c(c2)OCO3)c1,,inactive: 9.02%

Compound,Potency,"activity change, negative = inhibition"
CCOc1cc(C2C(C(=O)c3ccco3)=C(O)C(=O)N2CCc2ccccc2)ccc1O (configuration not stated),"inconclusive [inhibitor, full curve, poor fit]",
Cc1cc(C)c(S(=O)(=O)NCc2nc3nc(C)cc(C)n3n2)c(C)c1,"inconclusive [inhibitor, partial curve, poor fit]",
Cc1ccccc1C(=O)c1c[nH]c(C(=O)NCCc2ccccn2)c1,"inconclusive [inhibitor, full curve, poor fit]",
Cc1cc(S(=O)(=O)N2CCN(c3ccccc3O)CC2)c(C)s1,"inconclusive [inhibitor, full curve, poor fit]",
NC(=O)C1CCN(C(=O)c2cn(-c3ccccc3)nc2-c2cccnc2)CC1,"inconclusive [inhibitor, full curve]",
COC(=O)CCCC(=O)NCC1(N(C)Cc2ccccc2)Cc2ccccc2C1,"inconclusive [inhibitor, full curve, poor fit]",
CC(C)n1ncc(N2CCOCC2)c(Cl)c1=O,"inconclusive [inhibitor, single point]",
C=CCNC(=O)c1ccc(N(CC=C)S(C)(=O)=O)cc1,"inconclusive [inhibitor, partial curve, poor fit]",
Cc1cc(NC(=O)CSCC(=O)NCc2cccc(C(F)(F)F)c2)no1,"inconclusive [inhibitor, full curve, poor fit]",
CCCCNC(=O)COC(=O)c1cc(S(=O)(=O)N2CCCCCC2)ccc1OC,"inconclusive [inhibitor, full curve]",
CCOC(=O)Cn1nc(NC(=O)c2ccc3c(c2)OCO3)cc1C,,inactive: 5.98%
COc1ccc(C2=NS(=O)(=O)N(C)C(C(=O)N(C)Cc3ccccc3)=C2)cc1OC,"inconclusive [inhibitor, partial curve, poor fit]",
CCOc1ccc(N(CC(=O)NCCc2ccccc2)S(=O)(=O)c2ccccc2)cc1,"inconclusive [inhibitor, single point]",
O=C(NCCCn1ccnc1)c1ccc(Br)s1,"inconclusive [inhibitor, full curve, poor fit]",
COc1ccc(-n2c(SCC(=O)NCc3ccco3)nnc2-c2c[nH]c3ccccc23)cc1,"inconclusive [inhibitor, full curve]",
CCCCC(=O)Nc1cc(C(=O)NCCc2ccccc2)ccc1Cl,"inconclusive [inhibitor, partial curve, poor fit]",
CCN(CC(=O)NCc1cccs1)C(=O)/C=C/c1cc(Br)ccc1OC(F)F,,inactive: 0.18%
O=C1CC(N2CCN(Cc3ccc4c(c3)OCO4)CC2)C(=O)N1c1cccc(Cl)c1 (configuration not stated),"inconclusive [inhibitor, single point]",
Cc1cc2c(cc1NS(=O)(=O)c1ccc(NC(=O)CC(C)C)cc1)n(C)c(=O)c(=O)n2C,,inactive: -3.26%
O=C(Nc1cccc(O)c1)N1CCOCC1,"inconclusive [inhibitor, full curve, poor fit]",
Cc1ccc(-c2csc(/C(C#N)=C/Nc3ccc4c(c3)OCCO4)n2)cc1,"inconclusive [inhibitor, full curve, poor fit]",
